PMC4336329 (PLoS ONE, 2015)
Hit rate of the full screen: of about 310,000 compounds, about 14,000 (4.5%) showed an effect of 50% or more. Effects have a minus sign here. The list shows a part of the results.

Molecular target: human ether-à-go-go-related gene (hERG) potassium channel (human, UniProt Q12809)
Assay: primary screen, population patch clamp on CHO cells stably expressing hERG
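Note: peak tail current of the secondary pulse compared with the same well before compound.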

human ether-à-go-go-related gene (hERG) potassium channel, sequence (Q12809 whole entry, looked up): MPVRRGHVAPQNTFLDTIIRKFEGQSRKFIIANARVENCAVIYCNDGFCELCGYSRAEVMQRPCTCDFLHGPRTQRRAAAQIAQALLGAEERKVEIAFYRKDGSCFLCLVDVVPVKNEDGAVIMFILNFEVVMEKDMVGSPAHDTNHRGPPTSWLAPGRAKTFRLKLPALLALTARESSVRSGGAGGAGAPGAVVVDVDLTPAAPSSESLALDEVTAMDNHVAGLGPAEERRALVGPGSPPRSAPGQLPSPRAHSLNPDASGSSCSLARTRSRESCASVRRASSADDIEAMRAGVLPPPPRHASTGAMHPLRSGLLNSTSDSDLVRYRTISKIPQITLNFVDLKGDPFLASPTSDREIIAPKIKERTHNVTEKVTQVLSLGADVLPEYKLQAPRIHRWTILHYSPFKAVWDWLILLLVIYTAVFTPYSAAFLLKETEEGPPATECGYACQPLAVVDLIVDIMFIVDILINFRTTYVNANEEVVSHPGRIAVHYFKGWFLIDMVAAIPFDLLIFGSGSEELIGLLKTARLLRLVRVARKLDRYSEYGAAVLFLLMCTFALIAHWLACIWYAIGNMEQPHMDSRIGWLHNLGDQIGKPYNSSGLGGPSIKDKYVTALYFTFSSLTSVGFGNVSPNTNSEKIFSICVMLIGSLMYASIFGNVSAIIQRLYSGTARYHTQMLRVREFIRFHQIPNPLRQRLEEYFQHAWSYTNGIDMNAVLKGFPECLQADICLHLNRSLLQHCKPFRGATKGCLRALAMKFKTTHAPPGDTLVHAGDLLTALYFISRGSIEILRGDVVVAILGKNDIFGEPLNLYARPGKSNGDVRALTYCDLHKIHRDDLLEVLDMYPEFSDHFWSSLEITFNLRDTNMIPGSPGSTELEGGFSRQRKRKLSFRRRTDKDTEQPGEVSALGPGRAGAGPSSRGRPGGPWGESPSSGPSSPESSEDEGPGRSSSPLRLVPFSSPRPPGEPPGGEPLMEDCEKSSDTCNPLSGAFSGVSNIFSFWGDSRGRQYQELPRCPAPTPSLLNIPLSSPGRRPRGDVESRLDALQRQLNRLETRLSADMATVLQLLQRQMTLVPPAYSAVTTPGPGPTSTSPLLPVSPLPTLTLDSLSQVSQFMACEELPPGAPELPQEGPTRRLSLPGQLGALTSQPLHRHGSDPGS

Compound	hERG current change (%, negative = inhibition) at 10uM [%]
Cc1cccc(N2CCN(C(=O)c3ccc4c(c3)NC(=O)C(CSCc3cccc(F)c3)N4)CC2C)c1 (centres unmarked)	17
CC(C(=O)Nc1ccc(Cl)cc1Cl)N1C(=O)NC2(CCCCCCC2)C1=O (centres unmarked)	-2.76
CCC(=O)Nc1cccc(Oc2nc(C)cc(C)c2C#N)c1	-2.5
O=C(Cc1cccs1)N(Cc1cccs1)C1(C(=O)NC2CCCCC2)CCCCC1	-1.65
CN(C)CCNC(=O)c1onc(CSc2ccc(F)c(F)c2)c1C(=O)NCCN(C)C	11.3
COc1ccc2[nH]c(CN3CCC(CO)(CCOc4ccccc4)CC3)c(C)c2c1	-45.3
CN(CC(=O)Nc1ccc(N2CCOCC2)cc1)C(=O)CC(c1ccccc1)c1ccccc1	-22
Clc1ccc(-c2nnc(-c3cccnc3)o2)cc1	-11.8
COc1ccc(-c2cn3ccsc3n2)cc1	-2.94
O=C(CCC1CCCC1)NCCS(=O)(=O)N1CCN(c2ccccc2F)CC1	-21.6
c1ccc(CNCCC(Cc2ccccc2)c2ccco2)cc1 (centres unmarked)	-54.8
Cc1c(NC(=O)COC(=O)C2(c3ccccc3F)CCCC2)c(=O)n(-c2ccccc2)n1C	-1.01
CCOc1ccc(S(=O)(=O)NCCC(=O)NCC(c2ccccc2OC)N2CCCC2)cc1 (centres unmarked)	0.832
CCc1ccc([C@@H]2CC=C(C(=O)O)[C@H](c3ccc(F)cc3)N2S(=O)(=O)c2ccc(C)cc2)cc1	21.7
Cc1ccc(CNC(=O)[C@@H](NC(=O)C2CCN(C(=O)[C@@H](N)CC(C)C)CC2)C(C)C)cc1	21.2
O=C(NC1CCCN(Cc2ccc(Cl)cc2)C1)C1CCC1 (centres unmarked)	-13.6
CC(C)N1CCN(Cc2ccncc2)CC1CCO (centres unmarked)	4.5
COC(=O)CSc1nnc(C2COc3ccccc3O2)n1-c1ccccc1 (centres unmarked)	-8.8
COc1cc(CC(=O)OCC(=O)Nc2ccc(S(=O)(=O)N3CCCC3)cc2)cc(OC)c1OC	1.62
O=[N+]([O-])c1cccc2c(S(=O)(=O)N3CCCCC3)cccc12	3.11
O=C(CC1C(=O)NCCN1CCCc1ccccc1)NCCc1ccccc1Cl (centres unmarked)	-15
Cl.OCCNCc1cccc(OCc2ccccc2Cl)c1	-17.6

Compound	hERG current change (%, negative = inhibition) at 10uM [%]
CCCCN(C)C(=O)c1sc2ncn(CC)c(=O)c2c1C	-4.5
Cn1nc(C(F)(F)F)c(C(=O)Nc2ccc(F)cc2F)c1Sc1cccc(C(F)(F)F)c1	12.1
Cc1cc(C(=O)CSc2ccccc2)cc(C)c1O	3.81
CC1c2[nH]c3ccccc3c2C[C@H]2C(=O)N(CCO)CC(=O)N12 (some centres unmarked)	10.2
O=c1cc(CO)oc(C(Nc2ccccn2)c2ccccc2F)c1O (centres unmarked)	17.5
Cc1ccc(Cl)cc1N1CCN(CC(=O)Nc2ccc3[nH]c(=O)[nH]c3c2)CC1	11.1
Cn1cc(C(=O)c2ccc(Cl)cc2Cl)cc1C(=O)N/N=C(\N)COc1ccc(Cl)cc1	-9.64
COC(=O)c1ccc(NC(=O)C2CCCN(S(=O)(=O)c3cnc[nH]3)C2)cc1 (centres unmarked)	3.35
CCC(C)(O)c1[nH]c2ccc(C(=O)OC)cc2c1C (centres unmarked)	4.57
CC1CCCN(C(=O)C2CCCN(S(=O)(=O)c3cccc4nsnc34)C2)C1 (centres unmarked)	2.02
CN1CCN(C(=O)/C(=C/c2ccc(F)cc2)NC(=O)c2ccccc2)CC1	-77.8
CCOC(=O)N1CCC(c2nc3ccccc3[nH]2)CC1	9.64
OCCCNC(=S)Nc1ccc2nc(-c3ccccn3)c(-c3ccccn3)nc2c1	3.83
O=C(Nc1ccc(Cl)cc1)Nc1nnc(CSCc2ccccc2)s1	19.6
C=CCNC(=O)c1c(N)n(-c2cccc(S(N)(=O)=O)c2)c2nc3ccccc3nc12	-4.04
Cc1c(C(=O)N/N=C/c2ccncc2)no[n+]1[O-]	20.1
CN1C(=O)c2ccc(N(C)C)cc2C1=O	18.9
Cc1ccc(C)c(Oc2ncnc(N)c2[N+](=O)[O-])c1	0.818
COc1ccc(/C=C/C(=O)Nc2cccc(S(=O)(=O)NC3=NCCCCC3)c2)cc1OC	5.13
C[C@H](NC(=O)[C@H]1N2C(=O)c3ccccc3C2SC1(C)C)C(=O)N1CCN(C)CC1 (some centres unmarked)	9.24
NC(=O)C1CCCN(CC(=O)Nc2ccccc2C(=O)NC2CC2)C1 (centres unmarked)	-10.7
CC(=O)Nc1cc2ccccc2oc1=O	22.5

Compound	hERG current change (%, negative = inhibition) at 10uM [%]
O=C(Cn1c(COc2ccccc2)nc2ccccc21)Nc1cc(Cl)ccc1Cl	9.36
COc1ccccc1CNC(=O)C1CCN(C(=O)c2sccc2-n2cccc2)CC1	17.5
O=[N+]([O-])c1ccc(OCCO)c(P(=O)(c2ccccc2)c2ccccc2)c1	-2.8
COc1cc2sc3ccc(C#Cc4ccc(N)cc4)cc3c(=O)c2cc1OC	20.4
C#CC(=O)N(c1cc(OC)ccc1OC)C(C(=O)NC1CCCC1)c1cccs1 (centres unmarked)	-12.6
COc1ccccc1C(=O)C1CCCN(C(=O)c2snnc2C)C1 (centres unmarked)	11.8
CN(C)CC/C=C1\c2cc(F)ccc2CSc2ccccc21.O=C(O)/C=C\C(=O)O	-35.4
CSCCC(NS(=O)(=O)c1ccc2c(c1)OCCO2)C(=O)N(C)Cc1ccc(F)cc1 (centres unmarked)	-35.2
CC1CN(C(=O)Nc2ccc(F)cc2F)CC(C)O1 (centres unmarked)	-29.5
Cc1nnsc1-c1c(C(=O)N2CCOCC2)c(C)nn1-c1ccccc1	0.762
O=c1[nH]cc(NCCc2ccccc2)c(=O)[nH]1	8.76
COc1ccccc1/C=C/C=N/NC(=O)CCn1cnc2ccccc21	-25
Cc1ccc(-c2nn(-c3ccccc3)cc2/C=C2\SC(=S)N(CCCCCC(=O)O)C2=O)o1	15.1
CC1=C(C(=O)OCCC(C)C)C(c2ccc3c(c2)OCO3)NC(=O)N1 (centres unmarked)	3.5
Cc1c(Cl)cccc1NC(=S)N(CCN(C)C)C(C)c1ccco1 (centres unmarked)	-55.9
C=CCn1c(CNC(=O)CCC)nc2ccccc21	6.74
CC(Cc1c[nH]c2ccccc12)NC(=O)OCCCl (centres unmarked)	11.7
COC(=O)c1c(C)[nH]c(C(=O)OC(C)C(=O)N(C)C2CCCCC2)c1C (centres unmarked)	-2.13
CC1CN(S(=O)(=O)c2cccc(C(=O)OCC(=O)NCc3ccccc3)c2)CC(C)O1 (centres unmarked)	-15.7
C=CCn1c(=O)[nH]c2cc(C(=O)N3CCN(c4ccc(C(C)=O)cc4)CC3)ccc2c1=O	-19.8
CCc1ccc(-n2c(O)c(/C=N/NC(=O)c3ccncc3)c(=O)[nH]c2=O)cc1	17
O=C(Nc1ccc(N2CCN(C(=O)c3ccco3)CC2)cc1)c1cccs1	-8.15

Compound	hERG current change (%, negative = inhibition) at 10uM [%]
CC(C)(C)C1CCC(=NNC(=O)C(=O)NC2CCCCC2)CC1 (centres unmarked)	3.37
Cc1ccc(S(=O)(=O)N(C)C)cc1NC(=O)COC(=O)CCC(=O)c1cccs1	-21.8
Cc1ccc(C(=O)NNC(=O)C2CCN(Cc3ccc(Cl)c(Cl)c3)CC2)cc1	3.43
CC(C)(C)[C@@H]1C=C(C(=O)N2CCOCC2)O[C@H](OCc2ccc(CO)cc2)C1	-7.33
CC(C(=O)N1CCCc2ccccc21)N1C(=O)c2ccccc2C1=O (centres unmarked)	-21.3
CC(=O)Nc1ccc(S(=O)(=O)NNC(=O)c2cccc([N+](=O)[O-])c2)cc1	17.8
COc1ccccc1NC(=O)C(C)OC(=O)CCSc1ccc(F)cc1 (centres unmarked)	1.41
Cc1nn(CC(=O)Nc2ccc(Cl)cc2Cl)c(=O)c2ccccc12	3.83
CN(C)CCn1c2c(c(SCC(=O)NCc3ccccc3)nc1=O)CCCC2	-20.8
Cc1ccccc1NC(=O)CN1C(=O)CSc2ccccc21	17.3
Cc1cccc(C)c1NC(=O)CNC(=O)C(Cc1ccccc1)NC(=O)c1ccccc1 (centres unmarked)	13.5
CS(=O)(=O)N(CC(=O)N1CCCC1)c1ccc(Cl)c(Cl)c1	3.05
CCCNC(=O)c1csc(Nc2cccc3ccccc23)n1	-30
CN1CCN(CC(=O)Nc2nc(-c3ccccc3)cs2)CC1	-40.4
Cn1c(=O)c2c(nc(/C=C/c3cccc(Cl)c3)n2C)n(C)c1=O	19.4
CN(C(=O)COC(=O)c1n[nH]c(=O)c2ccccc12)c1ccccc1	-12.2
Cc1cc(C)n(CC(=O)N2c3ccccc3Sc3ccc(C(F)(F)F)cc32)n1	-7.56
CC(C)(C)c1ccc(C2=CC(c3ccccc3)n3ncnc3N2)cc1 (centres unmarked)	0.793
CC(C(=O)NCc1ccc(F)cc1)n1ccc2cc(S(=O)(=O)N3CCCC3)ccc21 (centres unmarked)	-12.4
CCc1cc(=O)oc2cc(C)cc(OCC(C)=O)c12	5.77
